In patent EP1410040B1 (Boehringer Ingelheim International GmbH, dated 2006):

Biological target: T1, p/CIP (UniProt O09000 1-1398, limits assumed, 35S-methionine labeled in the pull-down assay)
T1 construct: also called ACTR; AIB1
Experiment: GST pull-down, 35S-labeled in vitro translated coactivator

B1: GST-STAT6 […] protein (other)
chain: [about 200 residues not shown]SDLIEGRGIPEFDSSMSMQLGPDMVPQVYPPHSHSIPPYQGLSPEESVNVLSAFQEPHLQMPPSLGQMSLPFDQPHPQGLLPCQPQEHAVSSPDPLLCSDVTMVEDSCLSQPVTAFPQGTWIGEDIFPPLLPPTEQDLTKLLLEGQGESGGGSLGAQPLLQPSHYGQSGISMSHMDLRANPSW
notes: also called GST-STAT6 ([…]); GST-STAT6 TAD
binding result: no binding

B2: GST (Glutathion S Transferase) alone (other)
chain: not shown
notes: Control for the GST fusion proteins
binding result: no binding
